T1: P19 subunit of human IL-23 (IL23p19) (UniProt Q9NPF7 20-189)
T1 chain: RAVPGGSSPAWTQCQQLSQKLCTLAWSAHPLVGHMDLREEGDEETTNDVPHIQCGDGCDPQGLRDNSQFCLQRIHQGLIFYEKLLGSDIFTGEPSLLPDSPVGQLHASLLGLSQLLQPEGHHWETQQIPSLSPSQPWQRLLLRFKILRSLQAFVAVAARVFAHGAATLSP

B1: BsAb #D1 (antibody)
chain 1: not shown
chain 2: QSVLTQPPSVSGAPGQRVTISCTGSSSNIGSGYDVHWYQQLPGTAPKLLIYGNSKRPSGVPDRFSGSKSGTSASLAITGLQSEDEADYYCASWTDGLSLVVFGGGTKLTVLGQPKAAPSVTLFPPSSEELQANKATLVCLISDFYPGAVTVAWKADSSPVKAGVETTTPSKQSNNKYAASSYLSLTPEQWKSHRSYSCQVTHEGSTVEKTVAPTECS
B2: BsAb #B5 (antibody)
chain 1: not shown
chain 2: B1 chain 2
B3: BsAb #D2 (antibody)
chain 1: not shown
chain 2: B1 chain 2
B4: BsAb #A5 (antibody)
chain 1: not shown
chain 2: B1 chain 2
chain 3: not shown
chain 4: EVQLVQSGAEVKKPGESLKISCKGSGYSFSNYWIGWVRQMPGKGLEWMGIIDPSNSYTRYSPSFQGQVTISADKSISTAYLQWSSLKASDTAMYYCARWYYKPFDVWGQGTLVTVSSASTKGPSVFPLAPSSKSTSGGTAALGCLVKDYFPEPVTVSWNSGALTSGVHTFPAVLQSSGLYSLSSVVTVPSSSLGTQTYICNVNHKPSNTKVDKKV[letters of human IgG1 Fc with changes left out]

This passage reports Kd results from patent US20260209331A1 (published 2026).

What is called Kd is a measure of binding affinity in units of concentration. A higher Kd goes with weaker binding.

In one assay the target is T1, P19 subunit of human IL-23 (IL23p19). Description: SPR. Background: In SPR one partner is held on a chip, and binding of the other changes the refractive index at the surface.
The molecule B1 yielded a Kd of 0.14 nM.

With B2, the Kd amounted to 0.06 nM. This Kd lies about 2.3-fold lower than the previous one.

In turn, B3 displayed a Kd of 0.04 nM.

As to B4, the dissociation constant (Kd) is 0.04 nM.

For the next assay, the target named is T2, human TNF alpha (TNFα) (UniProt P01375 part only). Description: SPR.
B1 returned a Kd of 0.28 nM.

B2: the Kd turned out to be 0.71 nM.

In the case of B3, the affinity, expressed as Kd, was 0.29 nM. This Kd lies about 2.4-fold lower than the previous one.

Molecule B4 had an equilibrium dissociation constant (Kd) of 0.39 nM.

For the next assay, the target named is T2, human TNF alpha (TNFα). Description: SPR; pre-bound with IL23p19.
T2 sequence (P01375 77-233): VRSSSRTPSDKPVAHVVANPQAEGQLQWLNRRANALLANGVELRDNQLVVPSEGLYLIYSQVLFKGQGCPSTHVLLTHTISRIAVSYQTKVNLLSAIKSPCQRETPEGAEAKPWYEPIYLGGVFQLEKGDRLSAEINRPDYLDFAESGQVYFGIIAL
The molecule B1 showed a dissociation constant Kd of 0.14 nM.

For B2, the dissociation constant (Kd) came to 1.07 nM.

B3 returned a Kd of 0.41 nM.
